# According to PubChem BioAssay AID686978 (National Center for Advancing Translational Sciences (NCATS), 2013):
# In all, about 420,000 compounds went through this assay and about 64,000 (15%) were called active. Inconclusive means that the source gave no clear call. Such entries were picked first, then a sample of the others. Calls come from the whole dose curve; as a rule, active = well fitted inhibition curve with a large enough effect; inconclusive = small, poorly fitted or top-dose-only effect; inactive = flat fitted curve, though single readings scatter. Potencies of inconclusive entries are left out as doubtful fits.
# Experiment: qHTS for Inhibitors of human tyrosyl-DNA phosphodiesterase 1 (TDP1): qHTS in cells in absence of CPT; note: nearly all actives have a fitted effect of over 55% in size
# Conditions: DT40 Tdp1-/- hTDP1 cells, no CPT, ATP luminescence, 48 h; activity change, negative = growth inhibition: at 46.2 µM (top of the series) unless noted
# In short: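 Growth kinetics read by CellTiter-Glo luminescence after ≥48 hr at 37 °C. Cells: DT40 Tdp1-/- stably carrying human TDP1, 400 per well, compound exposure in the absence of CPT (DMSO vehicle).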
# % is set by controls: 0 for no effect and ±100 for the full control effect; potency is the fitted concentration of half-maximal effect; tags give direction and shape of the fitted curve.
SMILES,Potency,"activity change, negative = growth inhibition"
COc1ccc(C)cc1N(C(=O)c1cccc(F)c1)c1nc2ccccc2s1,inactive,
Cc1cc(C(=O)COC(=O)C2=COCCO2)c(C)n1-c1cccc(F)c1,"inconclusive [inhibitor, single point]",
O=C(/C=C/c1ccc2c(c1)OCO2)c1cccnc1,"inconclusive [inhibitor, single point]",
CCOC(=O)C1=C(COC(=O)c2ccc3ccccc3c2O)NC(=O)NC1C (configuration not stated),"inconclusive [inhibitor, single point]",
O=C(NCCc1ccc(Cl)cc1)c1ccc2c(c1)nc1n2CCOC1,"inconclusive [inhibitor, single point]",
COc1ccc([N+](=O)[O-])cc1/C=N/Nc1nc(N2CCCCC2)nc(N2CCCCC2)n1,"inconclusive [inhibitor, single point]",
O=C(Nc1ccccc1)C1=C[C@H](c2ccc3c(c2)OCO3)C[C@H](OCCCCO)O1,"inconclusive [inhibitor, partial curve]",
CCOc1ccc(NS(=O)(=O)c2cc(C(=O)N3CCCC3)ccc2Cl)cc1,inactive,
CCNC(=S)N1CCN(C(=O)C(Cc2ccccc2)NC(C)=O)CC1 (configuration not stated),inactive,
Cc1ccc(-c2n[nH]c(=O)c3ccccc23)cc1S(=O)(=O)Nc1ccc(F)cc1,"inconclusive [inhibitor, single point]",
CCc1c(C)[nH]c2c(C)cccc2c1=O,"inconclusive [inhibitor, single point]",
O=C(N/N=C/c1ccc(COc2ccc(Br)cc2)o1)c1ccc2c(c1)OCO2,"inconclusive [inhibitor, single point]",
CCc1ccc(NS(=O)(=O)c2ccc(-c3cc(C)no3)cc2)cc1,active: 13 µM,
CC(=O)N1c2ccc3ccccc3c2C(C)CC12CCCCC2 (configuration not stated),"inconclusive [inhibitor, partial curve]",
O=S(=O)(Nc1nc2ccccc2nc1N1CCc2ccccc2C1)c1ccc(Cl)cc1,"inconclusive [inhibitor, partial curve, poor fit]",
CN(C)C=NC(=O)/C(C#N)=C/c1ccccc1,inactive,
CSCCC(NC(=O)COc1ccccc1)C(=O)N(C)CC(=O)Nc1ccc(C)cc1 (configuration not stated),inactive,
CC(C)c1c(C(=O)N/N=C/c2cccnc2)nnn1-c1nonc1N,"inconclusive [inhibitor, partial curve, poor fit]",
Nc1c(CNCc2nnn(Cc3ccccc3)c2N)nnn1Cc1ccccc1,"inconclusive [inhibitor, single point]",
CNC(=S)Nc1cccc(Cl)c1C,inactive,
COc1cccc(CNCCO)c1OCc1ccccc1Cl,inactive,
COc1cc(S(=O)(=O)N2CCOCC2)ccc1NC(=O)COC(=O)/C=C/c1cc(OC)c(OC)c(OC)c1,"inconclusive [inhibitor, single point]",
CC(=O)Nc1ccc(NC(=O)c2c(-c3ccccc3Cl)noc2C)cc1,inactive,
COc1ccccc1NC(=O)N1CCc2[nH]c3ccc(F)cc3c2C1,"inconclusive [inhibitor, single point]",

SMILES,Potency,"activity change, negative = growth inhibition"
C=CCN(c1ccccc1)S(=O)(=O)c1cccc(C(=O)N2CCN(c3ncccn3)CC2)c1,active: 3.66 µM,
Cc1ccc(CN2C(=O)CSCC2(C)C(=O)Nc2c(C)cccc2C)cc1 (configuration not stated),inactive,
CC(=O)C1=C(c2ccc(F)cc2)N(C(C)=O)n2c(nnc2C2CCCCC2)S1,active: 23.1 µM,
COc1ccc2nc(N3CCCC(C(=O)NCCCN4C(C)CCCC4C)C3)sc2c1 (configuration not stated),inactive,
CCOc1ccc(C(=O)NCC(c2ccc(Cl)cc2)N2CCCCC2)cc1 (configuration not stated),active: 9.2 µM,
Cc1ccc(S(=O)(=O)N2CCOCC2)cc1C(=O)N1CCc2ccccc21,,inconclusive: -34.3% [inhibitor]
COc1ccc2sc(SCCCS(=O)(=O)O)[n+](CCCS(=O)(=O)[O-])c2c1,"inconclusive [inhibitor, single point]",
O=C(c1cccs1)N1CCN(c2ncc(Br)cn2)CC1,"inconclusive [inhibitor, single point]",
CC(C)Oc1ccc(CCC(=O)NNC(=S)Nc2ccccc2)cc1,active: 18.4 µM,
NS(=O)(=O)c1cccc(NC(=O)COC(=O)c2ccccc2SCC(=O)N2CCCC2)c1,inactive,
CS(=O)(=O)c1ccc([C@@H](O)[C@@H](COC(=O)CN)NC(=O)C(Cl)Cl)cc1,active: 3.76 µM,
O=C(COc1ncnc2ccccc12)NCc1ccco1,inactive,
CCC(c1nnnn1Cc1ccccc1)N(Cc1ccccc1)Cc1cc2cc(C)ccc2[nH]c1=O (configuration not stated),"inconclusive [inhibitor, partial curve, poor fit]",
CCCCNc1ccc(-c2nc(-c3ccccn3)no2)cc1[N+](=O)[O-],inactive,
CCOc1ccc(-c2nnc(-c3ccncc3)o2)cc1,"inconclusive [inhibitor, single point]",
O=C(O/N=C\c1ccc(N2CCCCC2)c([N+](=O)[O-])c1)c1cccc(Cl)c1,"inconclusive [inhibitor, single point]",
CC(C)(C)C(=O)NC1CC2CCCC(C1)N2C(=O)Nc1ccccc1F (configuration not stated),inactive,
NC(=O)CC(NC(=O)Cc1cccc2ccccc12)c1ccc(N2CCCCCCC2)c([N+](=O)[O-])c1 (configuration not stated),"inconclusive [inhibitor, single point]",
O=C(COC(=O)C1(c2ccccc2)CC1)N1CCN(c2ccc(F)cc2)CC1,"inconclusive [inhibitor, partial curve]",
Cc1cc(=O)oc2cc3oc(=O)cc(C)c3cc12,inactive,
CCC(=O)NCCc1cc2cc(C)c(C)cc2[nH]c1=O,inactive,
Cc1ccc2c(c1)N(Cc1cccc(C#N)c1)C=NS2(=O)=O,,inconclusive: -32.6% [inhibitor]
Cc1cc(C)cc(NC(=O)CSc2cc(C(=O)c3nccn3C)c3ccccc3n2)c1,"inconclusive [inhibitor, partial curve]",
COc1ccc(C(CNC(=O)c2cccc(S(=O)(=O)Nc3ccc(F)cc3)c2)N(C)C)cc1 (configuration not stated),"inconclusive [inhibitor, single point]",

SMILES,Potency,"activity change, negative = growth inhibition"
CCN(C(=O)CSc1nc2ccccc2c(=O)n1Cc1ccc(C)cc1)C1CCS(=O)(=O)C1 (configuration not stated),"inconclusive [inhibitor, single point]",
NC(=O)CC(NC(=O)Cc1cccc2ccccc12)c1ccc(NCCCN2CCCC2=O)c([N+](=O)[O-])c1 (configuration not stated),inactive,
O=C(CCC(=O)N1CCSc2ccccc21)Nc1cccc(F)c1,"inconclusive [inhibitor, single point]",
O=C(Nc1ccc(F)cc1)C(c1ccccc1)N1CCN(S(=O)(=O)c2c(F)cccc2F)CC1 (configuration not stated),"inconclusive [inhibitor, single point]",
CC1(C(=O)NS(=O)(=O)c2ccc3ccccc3c2)CCN1C(=O)Cc1ccc(Cl)cc1Cl (configuration not stated),,inconclusive: -34.1% [inhibitor]
O=S(=O)(c1ccc2nnn(OCc3ccccc3)c2c1)N1CCOCC1,"inconclusive [inhibitor, single point]",
CC1CC2C(C(O)CC3(C)C2CCC3(O)C(=O)CO)C2(C)C=CC(=O)C=C12 (configuration not stated),inactive,
O=C(NCc1ccccc1OC(F)(F)F)C1CCC(=O)N(C2CC2)C1 (configuration not stated),inactive,
COc1ccc(-n2c(/C=C(\C)O)nc(=O)c3c(C)cc(C)nc32)cc1,"inconclusive [inhibitor, single point]",
CCOC(=O)c1cnc(N2CCN(c3cccc(C)c3C)CC2)c2ccccc12,"inconclusive [inhibitor, single point]",
COCCCNC(=O)c1cnn(-c2ncc3c(n2)-c2ccccc2CCC3)c1C,inactive,
CCc1ccc(N(CC(=O)NC2CCCC2)C(=O)CCC(=O)Nc2cc(C)on2)cc1,"inconclusive [inhibitor, single point]",
COC(=O)c1cccc(C(=O)N2CCCC(C(=O)c3cccc(OC(C)C)c3)C2)c1 (configuration not stated),"inconclusive [inhibitor, single point]",
O=C(NNc1cc(Cl)ccc1Cl)c1cccnc1Cl,inactive,
CC(C)(C)OC(=O)[C@H](Cc1ccccc1)NC(=O)c1[nH]cnc1C(=O)Nc1cccc(Cl)c1,"inconclusive [inhibitor, single point]",
CCOCCCNC(=O)N[C@H](C(=O)OC)C(C)CC (some centres not stated),inactive,
Cc1cccc(NC(=O)CSc2nnc(CSc3nc(C)cc(C)n3)n2Cc2ccco2)c1,,inconclusive: -33.6% [inhibitor]
O=C(Nc1ccc(Cc2ccncc2)cc1)C1CCC(N2C(=O)C3CCCCC3C2=O)CC1 (configuration not stated),"inconclusive [inhibitor, partial curve]",
Cc1ccc(CN2CCCC(CO)(Cc3ccccc3C)C2)s1 (configuration not stated),"inconclusive [inhibitor, partial curve]",
Cn1c(=O)c2[nH]c(SCCN)nc2n(C)c1=S,inactive,
Clc1ccc(-c2nnc(NCc3ccccc3)c3ccccc23)cc1,"inconclusive [inhibitor, single point]",
Cc1cc(C(=O)Nc2ccccc2N2CCOCC2)no1,inactive,
CCn1nccc1C(=O)Nc1nc2ccccc2n1CCN1CCCCC1,"inconclusive [inhibitor, single point]",
Cc1ccc(NCC(=O)Nc2cccc(S(=O)(=O)N(C)C)c2)c(Cl)c1,"inconclusive [inhibitor, single point]",
